Among the test systems are A101D; A2058; A375.
What all share (assay): cell count relative to DMSO control; melanoma cells; higher = more viable cells
Common to all, as to settings: library dose: standard library concentration; 72 h

This is one part of the list. Many values rest on one well or one pass, so single values are uncertain.
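Also: cells treated in 1,536-well plates, then fixed and DAPI-stained, with nuclei counted from automated high-throughput microscope images.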

For `Cc1cc(Nc2cc(N3CCN(C)CC3)nc(/C=C/c3ccccc3)n2)n[nH]1` + Nc1cccc2c1CN(C1CCC(=O)NC1=O)C2=O [lenalidomide] (first compound 0.2 µM, partner dose 5 µM), the cell count with A101D is 74.6%; with A2058, 98.9%; with A375, 95%.
The matching figures for `CC(C)C[C@H](NC(=O)[C@H](Cc1ccccc1)NC(=O)c1cnccn1)B(O)O` [Bortezomib] + CS(=O)(=O)CCNCc1ccc(-c2ccc3ncnc(Nc4ccc(OCc5cccc(F)c5)c(Cl)c4)c3c2)o1 [lapatinib] (first compound 0.005 µM, partner dose 4 µM): 17.4%, 12.3% and 91.2%.
For `Cn1c(=O)n(-c2ccc(C(C)(C)C#N)cc2)c2c3cc(-c4cnc5ccccc5c4)ccc3ncc21` + Nc1nc(F)nc2c1ncn2[C@@H]1O[C@H](CO)[C@@H](O)[C@@H]1O [fludarabine] (first compound 0.02 µM, partner dose 1 µM) the same measures were 76.8%, 66.3% and 32.8%.
Consider `Cc1cc(Nc2cc(N3CCN(C)CC3)nc(/C=C/c3ccccc3)n2)n[nH]1` + C[C@]1(c2nc3c(C(N)=O)cccc3[nH]2)CCCN1 [Veliparib] (first compound 0.2 µM, partner dose 7 µM), for which the cell count with A101D turned out to be 79.3%; with A2058, 73%; in the assay with A375, 106%.
On to `Cc1cn(-c2cc(NC(=O)c3ccc(C)c(Nc4nccc(-c5cccnc5)n4)c3)cc(C(F)(F)F)c2)cn1` [nilotinib] + C[C@@H](Oc1cc(-c2cnn(C3CCNCC3)c2)cnc1N)c1c(Cl)ccc(F)c1Cl [Crizotinib] (first compound 1 µM, partner dose 1 µM), for which the cell count was 81.3% in the assay on A101D, 82.1% in the assay with A2058 and 120% in the assay with A375.

For the origin of these results see the supplement of paper PMC4604168 (melanoma cell lines).
